{"source": "the supplement of paper PMC3334620", "note": "Over roughly 33,000 sequences, “E-score (-0.5 to 0.5)” has its median near -0.035; the highest 2% begin near 0.35. This is one part of the list.", "data": [{"target": "T1, Pdr3 (UniProt P33200)", "T1 sequence": "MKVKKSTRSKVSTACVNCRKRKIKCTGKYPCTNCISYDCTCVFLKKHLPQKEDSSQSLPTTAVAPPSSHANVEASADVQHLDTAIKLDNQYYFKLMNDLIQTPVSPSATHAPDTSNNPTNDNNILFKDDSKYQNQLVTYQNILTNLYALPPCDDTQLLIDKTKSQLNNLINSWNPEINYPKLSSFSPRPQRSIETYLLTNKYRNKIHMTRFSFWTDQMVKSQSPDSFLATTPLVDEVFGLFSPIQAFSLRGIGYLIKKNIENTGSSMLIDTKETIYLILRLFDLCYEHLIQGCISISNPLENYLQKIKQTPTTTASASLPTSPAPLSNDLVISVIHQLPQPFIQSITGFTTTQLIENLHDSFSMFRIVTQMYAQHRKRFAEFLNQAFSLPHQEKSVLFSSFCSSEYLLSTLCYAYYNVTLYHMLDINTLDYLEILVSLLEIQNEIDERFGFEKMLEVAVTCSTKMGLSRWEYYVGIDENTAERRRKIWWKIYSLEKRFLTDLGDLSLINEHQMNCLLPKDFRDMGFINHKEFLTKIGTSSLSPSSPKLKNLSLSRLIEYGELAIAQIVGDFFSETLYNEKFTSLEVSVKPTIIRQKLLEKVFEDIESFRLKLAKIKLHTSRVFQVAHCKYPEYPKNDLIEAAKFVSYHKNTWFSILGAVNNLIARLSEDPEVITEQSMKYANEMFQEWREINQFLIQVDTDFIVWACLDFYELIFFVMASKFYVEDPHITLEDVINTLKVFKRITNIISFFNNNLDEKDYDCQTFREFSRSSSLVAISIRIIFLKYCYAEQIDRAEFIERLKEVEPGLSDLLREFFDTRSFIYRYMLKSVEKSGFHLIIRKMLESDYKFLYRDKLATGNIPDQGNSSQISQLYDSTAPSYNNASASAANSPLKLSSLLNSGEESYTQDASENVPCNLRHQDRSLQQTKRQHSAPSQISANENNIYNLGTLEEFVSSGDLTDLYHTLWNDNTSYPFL", "assay": "PBM E-score (8-mer binding enrichment) (E-score (-0.5 to 0.5)); higher = stronger / more preferred TF binding; most listed sequences are background and not binding sites", "settings": "protein concentration: 200 nM; construct: GST-full length", "procedure,_shortened": "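For each ungapped eight-base word taken together with its reverse complement, the Universal PBM Analysis Suite assigned an E-score. Binding data came from GST-tagged yeast transcription factors, applied at about 100-200 nM, on universal all-10-mer Agilent arrays made double-stranded by primer extension. Fluorescent anti-GST marked bound protein, and scans were normalised with masliner.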", "values": [{"sequence": "AAGATTAT", "PBM E-score": -0.033}, {"sequence": "CCGGGTCC", "PBM E-score": 0.365}, {"sequence": "TAATACAA", "PBM E-score": 0.0517}, {"sequence": "GATTATTA", "PBM E-score": 0.0505}, {"sequence": "AATTTAGA", "PBM E-score": 0.007}, {"sequence": "AAATCCCA", "PBM E-score": -0.0896}, {"sequence": "CCAACCGC", "PBM E-score": 0.146}, {"sequence": "GGTGGCTA", "PBM E-score": -0.223}, {"sequence": "TCCGCCCA", "PBM E-score": 0.305}, {"sequence": "TAGGTATA", "PBM E-score": 0.0254}, {"sequence": "AAATATGC", "PBM E-score": 0.0207}, {"sequence": "GAATGGAC", "PBM E-score": -0.0365}, {"sequence": "CCGTATTA", "PBM E-score": 0.19}, {"sequence": "ATGGTGTC", "PBM E-score": -0.0482}, {"sequence": "ACGATTCC", "PBM E-score": 0.228}, {"sequence": "CAATGGGA", "PBM E-score": 0.02}, {"sequence": "ATGGTATC", "PBM E-score": 0.143}, {"sequence": "GTTATTGA", "PBM E-score": -0.123}, {"sequence": "ACCCTGAC", "PBM E-score": -0.153}, {"sequence": "ATTCGTCA", "PBM E-score": -0.0777}, {"sequence": "GGATCTGA", "PBM E-score": 0.0795}, {"sequence": "AGTATCTA", "PBM E-score": -0.0775}, {"sequence": "CCTTAGGC", "PBM E-score": -0.327}, {"sequence": "AGTGTGCG", "PBM E-score": 0.094}, {"sequence": "CCGCTGTA", "PBM E-score": 0.0822}, {"sequence": "CGCCCACG", "PBM E-score": 0.0847}, {"sequence": "CAATCGCA", "PBM E-score": -0.0175}, {"sequence": "ACGACTCA", "PBM E-score": -0.132}, {"sequence": "GTCACTTA", "PBM E-score": 0.0725}, {"sequence": "ATGGGCCG", "PBM E-score": 0.0292}, {"sequence": "TTAATTAA", "PBM E-score": -0.169}, {"sequence": "GACGCATC", "PBM E-score": 0.0379}, {"sequence": "CGCCTAGA", "PBM E-score": -0.0434}, {"sequence": "CATAGGCA", "PBM E-score": -0.0874}, {"sequence": "GGGAAGTA", "PBM E-score": 0.097}, {"sequence": "TCCCCGAA", "PBM E-score": 0.232}, {"sequence": "GGTCCTAA", "PBM E-score": -0.111}, {"sequence": "ACATAGCG", "PBM E-score": 0.00938}, {"sequence": "CTTTGCAC", "PBM E-score": -0.15}, {"sequence": "CAGGAGAC", "PBM E-score": -0.164}, {"sequence": "GCATCCTA", "PBM E-score": 0.00911}, {"sequence": "ACAGCCTA", "PBM E-score": -0.0216}, {"sequence": "ATCAACTG", "PBM E-score": 0.047}, {"sequence": "AAGAGGTC", "PBM E-score": -0.0861}, {"sequence": "GCCGTTAA", "PBM E-score": 0.0215}, {"sequence": "CCCGTCGG", "PBM E-score": 0.324}, {"sequence": "GTTCACTA", "PBM E-score": -0.146}, {"sequence": "CAATTGCG", "PBM E-score": 0.0949}, {"sequence": "AATGTTCC", "PBM E-score": 0.249}, {"sequence": "AGGTCATC", "PBM E-score": -0.118}, {"sequence": "GCCCCAAC", "PBM E-score": 0.0203}, {"sequence": "GAAGAGCC", "PBM E-score": 0.145}, {"sequence": "AGTCCGTA", "PBM E-score": 0.149}, {"sequence": "CCCCTATC", "PBM E-score": -0.162}, {"sequence": "ACCGCACG", "PBM E-score": -0.0867}, {"sequence": "ACTCGCAC", "PBM E-score": 0.0753}, {"sequence": "ATATAGTG", "PBM E-score": 0.0328}, {"sequence": "CCAGTTAC", "PBM E-score": -0.164}, {"sequence": "ATCCCAGG", "PBM E-score": 0.113}, {"sequence": "CCTAAAAA", "PBM E-score": -0.0956}, {"sequence": "TGGCAAAA", "PBM E-score": -0.0248}, {"sequence": "ACAATTAT", "PBM E-score": 0.0545}, {"sequence": "ATTTGTGG", "PBM E-score": -0.0692}, {"sequence": "ACCAGACT", "PBM E-score": -0.233}, {"sequence": "ACGAAGTG", "PBM E-score": -0.16}, {"sequence": "CTTAAATC", "PBM E-score": -0.106}, {"sequence": "TCAAGTAA", "PBM E-score": -0.222}, {"sequence": "GCGTTCAA", "PBM E-score": -0.198}, {"sequence": "ATAAGCCG", "PBM E-score": 0.16}, {"sequence": "CTCGTTCA", "PBM E-score": -0.0847}, {"sequence": "AAAGCATT", "PBM E-score": -0.237}, {"sequence": "CCATGCAA", "PBM E-score": 0.11}, {"sequence": "GCGACTAC", "PBM E-score": -0.0357}, {"sequence": "ACAACTCC", "PBM E-score": 0.178}, {"sequence": "ACTGGCTG", "PBM E-score": 0.0907}, {"sequence": "GGGGGACC", "PBM E-score": -0.161}, {"sequence": "CGATCTAA", "PBM E-score": -0.0767}, {"sequence": "AACCCAGT", "PBM E-score": -0.102}, {"sequence": "AAGGTGTA", "PBM E-score": -0.185}, {"sequence": "CACTGCCA", "PBM E-score": -0.0758}, {"sequence": "ATCCGGGG", "PBM E-score": 0.389}, {"sequence": "AATTAACA", "PBM E-score": -0.0341}, {"sequence": "TGGCGACA", "PBM E-score": -0.133}, {"sequence": "TAAAACTA", "PBM E-score": -0.0639}, {"sequence": "AGAAGTTC", "PBM E-score": -0.113}, {"sequence": "CTATACGC", "PBM E-score": -0.0164}]}]}
